From patent US20160084841A1, “Method for Predicting Clinical Effect of Immunotherapy” (INTERNATIONAL INSTITUTE OF CANCER IMMUNOLOGY, INC., priority 2013, published 2016)

Tested on: anti-WT1332 peptide IgG antibody
Test: ELISA using variant WT1 antigen peptide as immobilized antigen to assay anti-WT1332 peptide IgG antibody
Format: binding, human
Conditions: serum diluted 100-fold; titer increased in WT1332-immunized patient, not in unimmunized patient; FIG. 18
Method: A vector expressing WT1-frg3 (SEQ ID NO: 57) as a GST-tagged protein was constructed using a pGEX-5X-3 vector (GE Healthcare Japan Corp.). The prepared vector was transferred to competent cells DH5α by heat shock. The vector-transferred E. coli was cultured. At the point in time when the OD600 value became 0.4 to 0.6, isopropyl-β-D-thiogalactoside (IPTG) was added at a final concentration of 1 mM to the medium to induce protein expression. The cells were further cultured for 3 hours. The bacterial cells were collected by centrifugation and then lysed in an SDS sample buffer (0.125 M Tris-HCl, 0.1 M DTT, 4% SDS, 10% sucrose, and bromophenol blue, pH 6.8). […]
The GST-WT1 frag1 protein solution (10 ng/μL) was added at 100 μL/well to a 96-well plate for ELISA. […] The reaction was terminated with 1 N HCl, and the absorbance at 450 nm was then measured using a microplate reader (CORONA […] MTP-32).
To a 96-well reaction plate supplied with Peptide Coating Kit (Takara Bio Inc.) having amino groups (—NH2) attached to the bottom surface of the wells, a solution (4 μg/mL) of the WT1 peptide dissolved in a reaction buffer supplied with Peptide Coating Kit was added at 50 μL/well. […] The reaction was terminated with 1 N HCl, and the absorbance at 450 nm was then measured using a microplate reader (CORONA […] MTP-310Lab).

B1: WT1-frg3: GST-tagged long-chain peptide (132 aa, SEQ ID NO: 57) containing the whole length of the administered WT1332 peptide (protein)
chain: SEKRPFMCAYPGCNKRYFKLSHLQMHSRKHTGEKPYQCDFKDCERRFSRSDQLKRHQRRHTGVKPFQCKTCQRKFSRSDHLKTHTRTHTGKTSEKPFSCRWPSCQKKFARSDELVRHHNMHQRNMTKLQLAL
modifications: GST tag
- ability as ELISA antigen to measure anti-WT1332 IgG antibody level in patient's serum: could measure an anti-WT1332 IgG antibody level in patient's serum
